The values below come from PubChem BioAssay AID1240 (Sanford-Burnham Center for Chemical Genomics, 2008).

About 800 (1.6%) of roughly 50,000 compounds showed an effect of 50% or more. The list shows a part of the results.

In the test the target is Bcl-2-like protein 10 (Homo sapiens) (UniProt Q9HD36). Briefly: TR3 peptide-Bcl-B binding displacers, biochemical primary FP assay, phenotype converters (AID 1240).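 Note: 0% = Bcl-B with tracer peptide and DMSO and 100% = tracer peptide lacking Bcl-B.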 The conditions noted are these: GST-Bcl-B / FITC-TR3 peptide fluorescence polarization; stronger effect = higher value; compound at 3.75 mg/L.
UniProt Q9HD36, sequence (Q9HD36 whole entry, looked up): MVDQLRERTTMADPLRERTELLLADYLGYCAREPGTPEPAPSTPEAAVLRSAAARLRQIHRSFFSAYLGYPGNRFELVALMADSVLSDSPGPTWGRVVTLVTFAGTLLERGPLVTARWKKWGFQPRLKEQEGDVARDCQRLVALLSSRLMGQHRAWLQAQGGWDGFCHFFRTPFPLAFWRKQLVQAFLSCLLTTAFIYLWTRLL
In the case of `COC(=O)Cn1c2c(c3cc(C)ccc31)CCCC2=NCc1ccccc1`, the displacement is -2.1%.
`O=C(/C=C/c1ccco1)Nc1ccc(NC(=O)c2ccc(Cl)cc2Cl)cc1`: the displacement turned out to be 10%.
Then `O=C1CN(S(=O)(=O)c2ccc3c(c2)C(=O)c2ccccc2-3)CC(=O)N1`, with -3.3%; and `CCOC(=O)CSc1nc2sc3c(c2c(=O)n1-c1ccc(OC)cc1)CCc1ccccc1-3`, with -6.4%.
On to `O=C1Nc2ccc(Br)cc2/C1=C/c1ccc2ccccc2n1`, for which the displacement was -1.1%.
Turning to `Cc1ccc(-c2nc(N/N=C/c3ccc([N+](=O)[O-])cc3)c3ccccc3n2)cc1`, the displacement is 3.5%.
As to `CCCCn1c(-c2ccccc2)nc2ccccc21`, the displacement was -4.2%.
For `O=S(=O)(NCc1ccc(F)cc1)c1ccc(Cl)cc1`, the displacement is 2.1%.
`Brc1ccc(NCn2nnc3ccccc32)cc1`: the displacement came out at 4.4%.
As to `CCOC(=O)/C(C#N)=C\c1c(C)cc(C)c(COC)c1C`, the displacement was found to be 13.8%.
For the compound `COC(=O)c1sc(NC(=O)c2ccccc2F)c(C(=O)OC)c1C`, the displacement was 11%.
With `COC(=O)C1=C(O)/C(=C/c2ccc(OCC(=O)Nc3ccccc3)cc2)N=C1C`, the displacement was determined as 15.1%.
Take `C/C(=N\NC(=O)COc1ccc(Cl)cc1Cl)c1ccc([N+](=O)[O-])cc1`: the displacement turned out to be 4.7%.
Under `CCOc1ccccc1NC(=O)CN(c1cccc(OC)c1)S(=O)(=O)c1ccccc1` stands 2.2%.
Turning to `CCOC(=O)C1=CN(c2ccc(OCC)cc2)C=C(C(=O)OCC)C1c1ccc2c(c1)OCO2`, the displacement worked out at 1.2%.
For `CCOc1ccc(N(CC(=O)NCc2ccco2)S(C)(=O)=O)cc1`, the displacement is 11.1%.
On to `Cc1ccc(OCCCCN2CCC(C)CC2)cc1`, for which the displacement was -3%.
As to `Cc1cc(Cl)cc(Cl)c1OCCOCCN1CCN(C)CC1`, the displacement is -13%.
Regarding `CN1CCN(C(=O)c2ccc(Cl)c(Cl)c2)CC1`, the displacement worked out at 10.3%.
In the case of `COc1ccc(OC)c(/C=C2\SC(N3CCOCC3)=NC2=O)c1`, the displacement was -12.6%.
In the case of `COc1cc(NC(=O)COc2ccc(Cl)cc2Cl)c2ncccc2c1`, the displacement was -9.3%.
Turning to `CCOP(=O)(OCC)c1nc2c(C)cccc2c(Nc2ccccc2C)c1Cl`, the displacement is -8.7%.
Take `COc1cc(/C=C(\C#N)c2ccc([N+](=O)[O-])cc2)ccc1O`: the displacement worked out at 2.6%.
For `CC(C)OCCCNC(=O)C(=O)NCCc1ccc(Cl)cc1`, the displacement was -0.8%.
Consider `O=C(NC(=S)Nc1cc([N+](=O)[O-])cc(Cl)c1O)c1cccnc1`, for which the displacement was 12.7%.
Regarding `Cc1ccc(C(=O)O)cc1-n1c(C)ccc1C`, the displacement was determined as 83.2%.
As to `COc1cc(N2CCCCC2)ccc1[N+](=O)[O-]`, the displacement is -4.2%.
As to `O=C(NC(NC(=S)Nc1ccc(Cl)cc1Cl)C(Cl)(Cl)Cl)c1ccccc1Cl` (stereo not given), the displacement was -21.9%.
In the case of `Cc1ccccc1NC(=O)C1CC(=O)N(c2cccc([N+](=O)[O-])c2)C1` (stereo not given), the displacement is -12.2%.
`CC(C)C(=O)Nc1sc2c(c1C(N)=O)CCCCC2`: the displacement came out at 1.5%.
Consider `COc1ccc(NC(=O)/C(=C\c2cccc([N+](=O)[O-])c2)NC(=O)c2cccs2)cc1`, for which the displacement is -3.4%.
Under `O=C(c1cccc(F)c1)N1CCN(Cc2ccccn2)CC1` stands 6.4%; under `CCN1C(=O)/C(=C/c2ccc(N3CCCC3)cc2)C(=O)NC1=S`, 3.9%; under `CC(=O)CC(=O)Nc1cc(C)ccc1C`, -4.5%.
For the compound `O=C1N/C(=N\N=C\c2ccccc2F)SC1Cc1cccc([N+](=O)[O-])c1` (stereo not given), the displacement was determined as 3.8%.
On to `Cc1ccccc1-n1c(C)cc(/C=N/NC(=O)c2ccc(CN3CCOCC3)cc2)c1C`, for which the displacement is -18.5%.
Under `COc1cccc(/C=C2\SC(N3CCCC3)=NC2=O)c1OC` stands -15.2%; under `CCOC(=O)C1=C(C)N(c2ccc(OC)cc2)C(=O)/C1=C\c1ccc(C(=O)O)cc1`, -3.4%; under `O=c1[nH]c(SCCOc2ccccc2F)nc2ccccc12`, 2.5%.
Under `Cc1ccccc1/C=N/N=C1\NC(=O)C(Cc2cccc([N+](=O)[O-])c2)S1` (stereo not given) stands 31.3%; under `O=C1c2ccccc2C(=O)N1CCc1nc2ccccc2c(=O)n1-c1ccc(Br)cn1`, -10.3%.
On to `COc1cc2c(cc1NC(=O)c1cccc(F)c1)oc1ccccc12`, for which the displacement is -26.3%.
Turning to `CC1CCCC(C(=O)O)N1C(=O)CCSC(=O)c1ccccc1` (stereo not given), the displacement came out at 10.8%.
For the compound `Cc1ccccc1/C(N)=N/OC(=O)c1ccc(C)c([N+](=O)[O-])c1`, the displacement turned out to be 0.4%.
Then `CC1=C(C(=O)Nc2cccc(Cl)c2)C(c2cccs2)NC(=S)N1` (stereo not given), with -9.2%.
Then `CC(=O)Oc1ccc(-c2cccc(C(=O)Nc3ccc([N+](=O)[O-])cc3)c2)cc1`, with 7.8%; and `COc1ccc(C(=O)Nc2ccc(Br)cc2F)c(OC)c1`, with -0.3%.
Consider `COc1ccc(Cl)cc1C(=O)Nc1cccc(-c2nc3ncccc3o2)c1C`, for which the displacement came out at 1.9%.
For `O=C1NN(c2ccc(Cl)cc2)C(=O)/C1=C\c1ccc(O)c(O)c1`, the displacement worked out at 13.5%.
For `COc1c(Br)cc(Br)cc1/C=c1\sc2nc3ccccc3n2c1=O`, the displacement was 21.9%.
Then `O=C(NCc1ccco1)c1nn2c(C(F)(F)F)cc(-c3ccccc3)nc2c1Cl`, with 1.6%; and `Cc1cccc(NC(=O)CSc2nc(-c3ccccc3)c(-c3ccccc3)o2)c1C`, with -0.2%.
Regarding `COc1ccc(NC(=O)c2c(NC(=O)c3ccccc3)sc3c2CCCC3)cc1`, the displacement turned out to be 5.7%.
Under `CCOc1ccccc1C(=O)Nc1nc(C)cs1` stands 6.3%; under `COc1ccccc1NCc1cccs1`, 11.4%.
Under `Cc1cc(/C=C2/NC(=O)NC2=O)c(C)n1C` stands 23.7%.
Take `Cc1ccc(N(CC(O)CN2CCCCC2)S(=O)(=O)c2ccc([N+](=O)[O-])cc2)cc1` (stereo not given): the displacement is -3.6%.
Under `CCCOC(=O)C1=C(C)NC2=C(C(=O)CCC2)C1c1cccc(F)c1` (stereo not given) stands 2.2%.
Turning to `O=C(NCCc1ccccc1)C(=O)NC1CCCC1`, the displacement is 6.1%.
Consider `O=C(N=Nc1c(O)[nH]c2c(Br)cc(Br)cc12)c1ccco1`, for which the displacement is -12.3%.
On to `COC(=O)C1=C(C)NC2=C(C(=O)c3ccccc32)C1c1ccc(I)o1` (stereo not given), for which the displacement stood at 10.7%.
Under `Cc1nc2ccc(Cl)cn2c1C(=O)NN=C1CCC(C(C)(C)C)CC1` (stereo not given) stands -11.2%; under `CC(=O)Nc1ccc2c(c1)C(=O)c1ccccc1C2=O`, 3.4%.
Under `O=C(Nc1cccc(Cl)c1)c1ccc(NC(=O)c2cccs2)cc1` stands 10.5%; under `O=C(COc1ccccc1)Nc1cc(C(=O)O)cc(C(=O)O)c1`, 3.9%.
For the compound `COc1ccc(COC(=O)C2=C(C)NC(=O)NC2c2cc(Cl)c(O)c(OC)c2)cc1` (stereo not given), the displacement was 5.9%.
With `O=c1[nH]nc(SCc2cccc3ccccc23)c(=O)[nH]1`, the displacement is -9.4%.
On to `NC(=O)c1ccccc1NC(=O)Nc1ccc(Cl)cc1`, for which the displacement was -9.1%.
Under `Cc1ccsc1/C=C1\SC(=S)N(C(C)c2ccccc2)C1=O` (stereo not given) stands -6.6%; under `COc1ccc2c(c1OC)C(=O)N(c1cccc(F)c1)C2=O`, -12.7%.
